# This is one part of the list.
# B1: AidA (Burkholderia cenocepacia) (protein)
# chain: MSRVTDVLVSFDTETILKKYPNPSKNPAAPTLIDWRYVYMVTNQDNVISGQAGGELDLKAQVGDLIRWRETSLSLGFENQVVFYKFIGNVGNDLISTPTPRVAEASIPVPNTSKPEVPTCQKVANYYWSSECLKVGRVTYHFQFQIIDRNCQSQGCFSWDPFISIHN
# Tests used:
# Experiment in all cases: glycan array binding signal (z-score within array); higher = stronger binding
# Conditions in all cases: glycan notation: IUPAC condensed, linker removed
# [1] = molecular target: Fuc(a1-2)[Gal(a1-3)]Gal(b1-4)GlcNAc(b1-2)Man(a1-3)[Fuc(a1-2)[Gal(a1-3)]Gal(b1-4)GlcNAc(b1-2)Man(a1-6)]Man(b1-4)GlcNAc(b1-4)[Fuc(a1-6)]GlcNAc
# Procedure, shortened: (§1)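 From the Consortium for Functional Glycomics database, 3228 arrays were curated, keeping only those whose protein sequence was available. Binding is given as a within-array Z-score averaged across arrays sharing a protein sequence and across linkers. Negative Z-scores can be read as non-binding.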
# [2] = molecular target: Fuc(a1-2)[Gal(a1-3)]Gal(b1-4)GlcNAc(b1-3)GalNAc
# Procedure, shortened: as §1
# [3] = molecular target: Fuc(a1-2)[Gal(a1-3)]Gal(b1-4)GlcNAc(b1-3)[Fuc(a1-2)[Gal(a1-3)]Gal(b1-4)GlcNAc(b1-6)]GalNAc
# Procedure, shortened: as §1
# [4] = molecular target: Fuc(a1-2)[Gal(a1-3)]Gal(b1-4)GlcNAc(b1-6)GalNAc
# Procedure, shortened: as §1
# [5] = molecular target: Fuc(a1-2)[Gal(a1-3)]Gal(b1-4)[Fuc(a1-3)]Glc
# Procedure, shortened: as §1
# [6] = molecular target: Fuc(a1-2)[Gal(a1-3)]Gal(b1-4)[Fuc(a1-3)]GlcNAc
# Procedure, shortened: as §1
# [7] = molecular target: Fuc(a1-2)[Gal(a1-3)]Gal(b1-4)[Fuc(a1-3)]GlcNAc(b1-3)GalNAc
# Procedure, shortened: as §1
# [8] = molecular target: Fuc(a1-2)[Gal(a1-4)]Gal(b1-4)GlcNAc
# Procedure, shortened: as §1
# [9] = molecular target: Fuc(a1-2)[GalNAc(a1-3)]Gal
# Procedure, shortened: as §1
# [10] = molecular target: Fuc(a1-2)[GalNAc(a1-3)]Gal(b1-3)GalNAc(a1-3)[Fuc(a1-2)]Gal(b1-4)GlcNAc
# Procedure, shortened: as §1
# [11] = molecular target: Fuc(a1-2)[GalNAc(a1-3)]Gal(b1-3)GalNAc(b1-3)Gal(a1-4)Gal(b1-4)Glc
# Procedure, shortened: as §1
# [12] = molecular target: Fuc(a1-2)[GalNAc(a1-3)]Gal(b1-3)GlcNAc
# Procedure, shortened: as §1
# [13] = molecular target: Fuc(a1-2)[GalNAc(a1-3)]Gal(b1-3)GlcNAc(b1-2)Man(a1-3)[Fuc(a1-2)[GalNAc(a1-3)]Gal(b1-3)GlcNAc(b1-2)Man(a1-6)]Man(b1-4)GlcNAc(b1-4)GlcNAc
# Procedure, shortened: as §1
# [14] = molecular target: Fuc(a1-2)[GalNAc(a1-3)]Gal(b1-3)GlcNAc(b1-2)Man(a1-3)[Fuc(a1-2)[GalNAc(a1-3)]Gal(b1-3)GlcNAc(b1-2)Man(a1-6)]Man(b1-4)GlcNAc(b1-4)[Fuc(a1-6)]GlcNAc
# Procedure, shortened: as §1
# [15] = molecular target: Fuc(a1-2)[GalNAc(a1-3)]Gal(b1-3)GlcNAc(b1-3)GalNAc
# Procedure, shortened: as §1
# [16] = molecular target: Fuc(a1-2)[GalNAc(a1-3)]Gal(b1-3)GlcNAc(b1-6)GalNAc
# Procedure, shortened: as §1
# [17] = molecular target: Fuc(a1-2)[GalNAc(a1-3)]Gal(b1-4)Glc
# Procedure, shortened: as §1
# [18] = molecular target: Fuc(a1-2)[GalNAc(a1-3)]Gal(b1-4)GlcNAc
# Procedure, shortened: as §1
# [19] = molecular target: Fuc(a1-2)[GalNAc(a1-3)]Gal(b1-4)GlcNAc(b1-2)Man
# Procedure, shortened: as §1
# [20] = molecular target: Fuc(a1-2)[GalNAc(a1-3)]Gal(b1-4)GlcNAc(b1-2)Man(a1-3)[Fuc(a1-2)[GalNAc(a1-3)]Gal(b1-4)GlcNAc(b1-2)Man(a1-6)]Man(b1-4)GlcNAc(b1-4)GlcNAc
# Procedure, shortened: as §1
# [21] = molecular target: Fuc(a1-2)[GalNAc(a1-3)]Gal(b1-4)GlcNAc(b1-2)Man(a1-3)[Fuc(a1-2)[GalNAc(a1-3)]Gal(b1-4)GlcNAc(b1-2)Man(a1-6)]Man(b1-4)GlcNAc(b1-4)[Fuc(a1-6)]GlcNAc
# Procedure, shortened: as §1
# [22] = molecular target: Fuc(a1-2)[GalNAc(a1-3)]Gal(b1-4)GlcNAc(b1-3)Gal(b1-4)GlcNAc
# Procedure, shortened: as §1
# [23] = molecular target: Fuc(a1-2)[GalNAc(a1-3)]Gal(b1-4)GlcNAc(b1-3)Gal(b1-4)GlcNAc(b1-3)Gal(b1-4)GlcNAc
# Procedure, shortened: as §1
# [24] = molecular target: Fuc(a1-2)[GalNAc(a1-3)]Gal(b1-4)GlcNAc(b1-3)GalNAc
# Procedure, shortened: as §1
# [25] = molecular target: Fuc(a1-2)[GalNAc(a1-3)]Gal(b1-4)GlcNAc(b1-3)[Fuc(a1-2)[GalNAc(a1-3)]Gal(b1-4)GlcNAc(b1-6)]GalNAc
# Procedure, shortened: as §1
# [26] = molecular target: Fuc(a1-2)[GalNAc(a1-3)]Gal(b1-4)GlcNAc(b1-6)GalNAc
# Procedure, shortened: as §1
# [27] = molecular target: Fuc(a1-2)[GalNAc(a1-3)]Gal(b1-4)[Fuc(a1-3)]GlcNAc
# Procedure, shortened: as §1
# [28] = molecular target: Fuc(a1-2)[GalNAc(a1-3)]Gal(b1-4)[Fuc(a1-3)]GlcNAc(b1-3)GalNAc
# Procedure, shortened: as §1
# [29] = molecular target: Fuc(a1-2)[GalNAc(a1-4)]Gal(b1-4)GlcNAc
# Procedure, shortened: as §1
# [30] = molecular target: Fuc(a1-2)[GalNAc(b1-3)]Gal
# Procedure, shortened: as §1
# [31] = molecular target: Fuc(a1-3)GlcNAc
# Procedure, shortened: as §1
# [32] = molecular target: Fuc(a1-3)[Gal(b1-4)]Glc6S
# Procedure, shortened: as §1
# [33] = molecular target: Fuc(a1-3)[Gal(b1-4)]GlcNAc
# Procedure, shortened: as §1
# [34] = molecular target: Fuc(a1-3)[Gal(b1-4)]GlcNAc(b1-2)Man
# Procedure, shortened: as §1
# [35] = molecular target: Fuc(a1-3)[Gal(b1-4)]GlcNAc(b1-2)Man(a1-3)[Fuc(a1-3)[Gal(b1-4)]GlcNAc(b1-2)Man(a1-6)]Man(b1-4)GlcNAc(b1-4)GlcNAc
# Procedure, shortened: as §1
# [36] = molecular target: Fuc(a1-3)[Gal(b1-4)]GlcNAc(b1-2)Man(a1-3)[Fuc(a1-3)[Gal(b1-4)]GlcNAc(b1-2)Man(a1-6)]Man(b1-4)GlcNAc(b1-4)[Fuc(a1-6)]GlcNAc
# Procedure, shortened: as §1
# [37] = molecular target: Fuc(a1-3)[Gal(b1-4)]GlcNAc(b1-3)Gal(b1-3)[Fuc(a1-4)]GlcNAc
# Procedure, shortened: as §1
# [38] = molecular target: Fuc(a1-3)[Gal(b1-4)]GlcNAc(b1-3)Gal(b1-4)[Fuc(a1-3)]GlcNAc
# Procedure, shortened: as §1
# [39] = molecular target: Fuc(a1-3)[Gal(b1-4)]GlcNAc(b1-3)Gal(b1-4)[Fuc(a1-3)]GlcNAc(b1-3)Gal(b1-4)[Fuc(a1-3)]GlcNAc
# Procedure, shortened: as §1
# [40] = molecular target: Fuc(a1-3)[Gal(b1-4)]GlcNAc(b1-3)GalNAc
# Procedure, shortened: as §1
# [41] = molecular target: Fuc(a1-3)[Gal(b1-4)]GlcNAc(b1-6)GalNAc
# Procedure, shortened: as §1
# [42] = molecular target: Fuc(a1-3)[Gal(b1-4)]GlcNAc(b1-6)[Gal(b1-3)GlcNAc(b1-3)]Gal(b1-4)Glc
# Procedure, shortened: as §1
# [43] = molecular target: Fuc(a1-3)[Gal(b1-4)]GlcNAc6S
# Procedure, shortened: as §1
# [44] = molecular target: Fuc(a1-3)[Gal3S(b1-4)]Glc
# Procedure, shortened: as §1
# [45] = molecular target: Fuc(a1-3)[Gal3S(b1-4)]GlcNAc
# Procedure, shortened: as §1
binder,measurement,setting,value
B1,glycan array binding signal (z-score),[1],0.334
same,glycan array binding signal (z-score),[2],0.22
same,glycan array binding signal (z-score),[3],0.451
same,glycan array binding signal (z-score),[4],0.125
same,glycan array binding signal (z-score),[5],-0.42
same,glycan array binding signal (z-score),[6],-0.366
same,glycan array binding signal (z-score),[7],-0.44
same,glycan array binding signal (z-score),[8],0.257
same,glycan array binding signal (z-score),[9],-0.281
same,glycan array binding signal (z-score),[10],0.483
same,glycan array binding signal (z-score),[11],-0.023
same,glycan array binding signal (z-score),[12],-0.054
same,glycan array binding signal (z-score),[13],0.186
same,glycan array binding signal (z-score),[14],-0.415
same,glycan array binding signal (z-score),[15],1.31
same,glycan array binding signal (z-score),[16],1.7
same,glycan array binding signal (z-score),[17],-0.083
same,glycan array binding signal (z-score),[18],-0.218
same,glycan array binding signal (z-score),[19],-0.558
same,glycan array binding signal (z-score),[20],-0.021
same,glycan array binding signal (z-score),[21],0.094
same,glycan array binding signal (z-score),[22],-0.23
same,glycan array binding signal (z-score),[23],0.982
same,glycan array binding signal (z-score),[24],0.188
same,glycan array binding signal (z-score),[25],-0.136
same,glycan array binding signal (z-score),[26],-0.35
same,glycan array binding signal (z-score),[27],-0.284
same,glycan array binding signal (z-score),[28],19.7
same,glycan array binding signal (z-score),[29],-0.07
same,glycan array binding signal (z-score),[30],0.114
same,glycan array binding signal (z-score),[31],-0.017
same,glycan array binding signal (z-score),[32],-0.308
same,glycan array binding signal (z-score),[33],0.172
same,glycan array binding signal (z-score),[34],0.556
same,glycan array binding signal (z-score),[35],-0.601
same,glycan array binding signal (z-score),[36],-0.556
same,glycan array binding signal (z-score),[37],-0.459
same,glycan array binding signal (z-score),[38],0.133
same,glycan array binding signal (z-score),[39],-0.21
same,glycan array binding signal (z-score),[40],-0.029
same,glycan array binding signal (z-score),[41],0.097
same,glycan array binding signal (z-score),[42],-0.816
same,glycan array binding signal (z-score),[43],-0.229
same,glycan array binding signal (z-score),[44],-0.269
same,glycan array binding signal (z-score),[45],1.39
